Laboratory results taken from ChEMBL document CHEMBL4888484, “Replenishing the malaria drug discovery pipeline: Screening and hit evaluation of the MMV Hit Generation Library 1 (HGL1) against asexual blood stage Plasmodium falciparum ,using a nano luciferase reporter read-out” (2022).
The campaign covered roughly 150,000 compounds. About 540 (0.36%) showed an effect of 50% or more. The list shows a part of the results.

test system: Plasmodium falciparum; test: Primary screen in NF54 nanoGlo assay, in single point, at 2uM, 72h; a lower Z score goes with more inhibition; format: functional, Erythrocyte; settings: timepoint 72 hour

SMILES	% Inhibition	Z score
Cc1c(CC(=O)N2CC[C@@H](O)C2)c2c(n1CCCc1ccccc1)CCCC2=O	-12%	2.11
Cc1ncc(C(=O)NC2CCCC2)c(=O)n1CC(=O)Nc1ccc(F)cc1Cl	-11%	1.65
CCCc1nnc(N2CC(Oc3cccc(Cl)c3)C2)o1	-17%	3.21
O=C(c1cc(-c2cccc(F)c2)ns1)N1CCN(c2ccccc2)CC1	-13%	1.76
CC1=C(CCN2CCO[C@H](C(=O)O)C2)C(C)(C)CCC1	-5%	0.96
Cc1nc(C(C)C)sc1[C@H](C)NCc1cnn(C)c1C	-10%	1.46
Cn1ccnc1CN(CCO)C(=O)[C@@H]1CC=CCC1	-8%	1.09
Cc1cc2c(cc(C(=O)NCc3ccccc3)n2[C@@H](C)c2ccccc2)s1	7%	-0.92
COc1ccc(NC(=O)Cn2nc3n(c2=O)CCCC3)cc1Cl	-4%	0.61
C[C@H](NCc1ccccc1CN1CCOCC1)C(=O)Nc1cccc2ccccc12	-7%	1.29
CN(C)c1ccc(NC(=O)c2ccoc2)cn1	27%	-3.09
COc1ccc(-c2ccc(N3CCCN(C(=O)CN(CCN4CCOCC4)C(=O)c4cccc(F)c4)CC3)nn2)cc1	-24%	2.1
O=C(N[C@@H]1COC2(CCCCC2)C1)c1nc2ccc(Cl)cn2c1F	-8%	1.06
NC(=O)C1CCC(CNC(=O)C2CC2c2ccco2)O1 (stereo not given)	3%	-0.38
CCN1c2ccc(C)cc2C(=O)NC12CCN(C(=O)c1cccc(OC)c1)CC2	-18%	2.33
Cc1ccc(C(=O)NC2(c3ccccc3F)COC2)o1	2%	-0.38
C[C@@H](c1nc2ccccc2c(=O)[nH]1)N1CCc2c(nc(C3CC3)n2C)C1	-14%	2.58
O=C(CNC(=O)c1cnccn1)NCCc1c[nH]c2ccccc12	-5%	0.78
CC(C)Cn1ccc(C(=O)Nc2nccnc2C(C)C)n1	5%	-0.85
CC(=O)Nc1ccc(C(=O)N2CCC3(CC2)NC(c2ccc(C)cc2)=NO3)cc1	-4%	0.47
COc1ccc(NC(=O)c2cc(-c3cccc4ccccc34)nc3ccccc23)c(OC)c1	-11%	1.14
Cc1cc(CN(C)C[C@H]2CCC(=O)O2)ccn1	-4%	0.79

SMILES	% Inhibition	Z score
Cc1cc2c(c(-c3ccc(Cl)cc3)c1)O[C@@H](CNC(=O)Cc1csc(C)n1)C2	-14%	1.58
CC[C@H](C)n1ncc(C(=O)Nc2n[nH]c(Cc3cccc(F)c3)n2)c1C1CC1	-5%	0.5
C[C@H]1CN(C(=O)c2cc(C#N)cn2C)CCN1C(=O)OC(C)(C)C	7%	-0.93
CC(C)(CNC(=O)N1CCCC1)N1CCOCC1	-8%	1.13
O=C(Nc1ccc(C2OC(=O)N(Cc3ccccc3)C2C(=O)NCCN2CCOCC2)cc1)c1ccco1 (stereo not given)	-9%	1.09
Cc1cccc(NC(=O)Cn2cncc(-c3nc(-c4ccccc4)cs3)c2=O)c1C	-4%	0.6
OCCO[C@H]1CCOC[C@H]1Nc1ncc(F)c(N2CCOCC2)n1	-11%	2.26
C[C@H]1CCn2c(nc3cc(C(=O)N4CCOCC4)ccc32)C1	-22%	3.15
CCC(CN1CCCC(S(C)(=O)=O)C1)NC(=O)OC(C)(C)C (stereo not given)	7%	-1.28
Cc1onc(C(=O)N2CC3(CCCCC3)C[C@@H]2CO)c1COc1ccccc1	-22%	3.8
CCNC(=O)c1ccc(-c2cc(NC3CCCC3)nc3[nH]ccc23)nc1	-3%	0.57
CC(=O)NCCN(C)[C@@H](C)c1ccc(F)cc1	-9%	1.36
Cc1nc(C)n(C[C@H](O)COCc2ccccc2)n1	-7%	0.8
Cc1cnn(CCC(=O)NC(C)(C)c2c(C)noc2C)c1	1%	-0.08
COc1cccc(OC)c1-c1c(-c2ccccc2)ncn1C[C@H]1COCCO1	-14%	1.34
CN(C(=O)OC(C)(C)C)c1ccc2ccccc2n1	-8%	0.97
CC(OC(=O)C1Cc2ccccc2C(=O)O1)C(=O)Nc1ccc(N2CCCCC2)cc1 (stereo not given)	-12%	1.6
Cc1cccc(C(=O)N2CC3CCC(N)C3C2)c1C (stereo not given)	-10%	1.34
C=CCC[C@@H](CN(C)Cc1cccnc1)Oc1cc(C)ccn1	1%	-0.08
c1ccc2c(c1)C[C@H](Nc1nnc(C3CCC3)o1)CO2	6%	-0.59
COC(CS(=O)(=O)N[C@H]1Cc2ccccc2[C@H]1OC)c1ccc(F)cc1 (stereo not given in full)	-5%	0.61
CCc1nnc(CNC(=O)Nc2cc3[nH]cnc3c(C)c2C)s1	-9%	1.78

SMILES	% Inhibition	Z score
O=S(=O)(NCC1(O)CCC1)c1ccc(Cl)cc1	-2%	0.29
CO[C@H]1COC[C@@H]1NC(=O)c1c(C)noc1C	-26%	2.67
Cc1nnc(N2CCC([C@@H](O)CCc3ccccc3)CC2)s1	-13%	2.09
O=S(=O)(NCCn1cc(-c2cccnc2)cn1)c1ccccc1	21%	-2.72
CCc1nc(CNC(=O)c2c(Br)cnn2CC)co1	-4%	0.71
CC(C)c1nc2ccc(NC(=O)N[C@H]3CCOC(C)(C)C3)cc2s1	-5%	0.55
Cc1ccc(NC(=O)c2coc(CN3CCN(Cc4ccccc4F)CC3)n2)cc1C	-8%	1.53
FC(F)(F)c1cnc2c(-c3ccc(Cl)cc3Cl)nnc(-c3ccc(Cl)cc3Cl)c2c1	1%	-0.1
CC1CC(C)CN(C(=O)c2cnc3ccccn3c2=O)C1 (stereo not given)	-13%	2.36
O=C(c1cc[nH]n1)N1CCC(COc2ccccn2)CC1	-9%	1
COc1ccc(C)cc1NC(=O)N1CCC(n2cnc3cccnc32)CC1	-16%	2.11
Cc1nc(Cn2nnnc2-c2ccncc2)no1	-3%	0.23
C=CCN(CC=C)C(=O)Nc1cccc(F)c1	-15%	2.01
Cc1cc(OC2CCN(C(=O)Cn3cccn3)CC2)nc(C)n1	-11%	2.03
Cc1cc(C(=O)Nc2nc(-c3ccccc3)c(C)s2)cs1	-5%	0.46
Cc1nc(CN)ccc1[C@H](C)NCc1cccnc1OCC(F)F	6%	-0.87
N#CC1(C(=O)Nc2ccc(-c3nnc[nH]3)cc2)CCCCC1	-12%	1.83
O=C(CC1(O)CCCC1)NC[C@H](O)c1ccc2ccccc2c1	-7%	0.89
CC(=O)Nc1ccccc1CC(c1c[nH]c2ccccc12)c1c[nH]c2ccccc12	34%	-4.4
CC1CN(C(=O)c2cccc3c2OCO3)CC(C)N1 (stereo not given)	-4%	0.85
COc1ccc(NC2CC(O)C(CO)O2)cc1 (stereo not given)	-4%	0.57
CC(NC(=O)C1=NNC(=O)CC1)C1CCCO1 (stereo not given)	-5%	0.53

SMILES	% Inhibition	Z score
CCn1ncnc1[C@H](C)NC(=O)Nc1c(C)noc1C	-15%	2.64
COC(C)c1noc(CNC2CCCCC2C(C)(C)C)n1 (stereo not given)	-15%	1.99
Cn1ccn2ncc(C(=O)NC(Cc3ccncc3)[C@H]3C[C@@H](O)C3)c12 (stereo not given in full)	5%	-0.8
CN(C)c1ccccc1NC(=O)CCc1ccccn1	-13%	1.74
CC1(C(=O)N2C[C@@H](Oc3cccnc3)C[C@H]2C(=O)N2CCOCC2)CCCCC1	-14%	1.87
O=C(NCC[C@@H]1C(=O)Nc2ccccc21)c1cc(OCC(F)F)ccn1	-10%	1.74
Cc1ccc(C(=O)N2CCCCCCNC(=O)[C@@H]3CCC[C@@H]32)cn1	-3%	0.33
C[C@H]1C(=O)NCCCN1C(=O)c1ccn(-c2cc(F)cc(F)c2)n1	-10%	1.79
Cc1[nH]ccc1C(=O)N1C[C@@H]2CC[C@H]1CN(C(=O)c1ccccn1)C2	-13%	2.16
O=C(N[C@H]1CCOC2(CCCC2)C1)N(Cc1ccoc1)C1CC1	-5%	0.78
CCn1c(CC2CCN(c3ncnc4[nH]ccc34)CC2)nn(C)c1=O	-9%	1.03
Cc1cc(NC(=O)Cc2cccs2)ccc1NC(=O)c1cccs1	-10%	1.32
CCN(C(=O)Cn1cc(-c2ccccc2)c2ncn(CC)c(=O)c21)c1ccccc1	78%	-9.77
Cn1cnc2cc(C(=O)N3CCC(C4CCOCC4)CC3)ccc21	-4%	0.72
CCn1cc(C(=O)N2CC[S+]([O-])CC(C)C2)c(C(F)(F)F)n1 (stereo not given)	-19%	3.65
COc1cc2cc(NC(C)=N)nc(C)c2cc1OC	15%	-1.95
O=C(N[C@H]1CN[C@H](C(=O)NCCNc2ccccc2)C1)c1ccc(F)c(F)c1	-9%	1.6
Cc1cccc(C(=O)Nc2cc(C)ccc2N2CCCN(Cc3ccccc3)C2=O)c1	-11%	1.38
O=C(COC(=O)C1CCC1)Nc1cccc(S(=O)(=O)N2CCOCC2)c1	-16%	3.07
